According to PubChem BioAssay AID651820 (National Center for Advancing Translational Sciences (NCATS), 2012):
About 12,000 (3.5%) of roughly 340,000 compounds were called active. This list was built around the results that the source calls inconclusive (neither active nor inactive); the mix of calls is not that of the screen. The call rests on the fitted dose curve; in most records, active means well fitted inhibition curve with a large enough effect; inconclusive means small, poorly fitted or top-dose-only effect, or another doubt; inactive means no such curve, though single readings can be large or run the other way. Potencies of inconclusive entries are left out as doubtful fits.

Assay: qHTS Assay for Inhibitors of Hepatitis C Virus (HCV)
Details: Huh7.5.1 HCVcc-Cre (HCVcc is cell-culture hepatitis C virus) infection, luciferase reporter, 44 h; activity change, negative = inhibition: at 41.8 µM (top of the series) unless noted
In short: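 Luciferase read-out (15 sec integration) after a 15 min room-temperature substrate step quantifies HCVcc-Cre infection. Cells, 1,000 per well, had compound added 4 h post-plating, then virus at ~0.5 moi, and were cultured 44 h.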
On the % scale 0 is the no-effect control and ±100 the full control effect; potency means the concentration at half of the fitted maximal effect; tags describe the fitted curve by direction and shape.

Row | SMILES | Potency | activity change, negative = inhibition
1 | CCN(CC)c1ccc(C(=O)OCC(=O)Nc2cc(C)on2)cc1 | inconclusive [inhibitor, single point] | 
2 | O=C(Nc1cccc(C(=O)N2CCN(Cc3ccccc3)CC2)c1)c1ccccc1 |  | inactive: -7.35%
3 | COc1cc(C2c3c([nH]c(=O)[nH]c3=O)Nc3ccc4ccccc4c32)ccc1O (stereo not drawn) | active: 10 µM | 
4 | Cc1ccc(-n2nc(C)c(NC(=O)CCl)c2C)cc1 | inconclusive [inhibitor, partial curve, poor fit] | 
5 | CCn1c(SCC(=O)c2cc(OC)ccc2OC)nnc1-c1ccncc1 | inconclusive [inhibitor, full curve] | 
6 | Cc1nc(SCC(=O)N2CC(=O)Nc3ccccc32)c2c(C)c(C)sc2n1 | inconclusive [inhibitor, single point] | 
7 | N#Cc1nc(-c2cccs2)oc1NCc1ccc(Cl)cc1 | active: 10 µM | 
8 | COc1cc(CNCCO)cc(Cl)c1OCc1ccc(Cl)cc1Cl | inconclusive [inhibitor, partial curve] | 
9 | COC(=O)c1oc2c(c1C)C1(CCC2)SCCS1 | inconclusive [inhibitor, full curve, poor fit] | 
10 | CCCCn1c(N)c(N(CCOC)C(=O)COC(=O)CSc2cc(C)c3ccccc3n2)c(=O)[nH]c1=O | inconclusive [inhibitor, single point] | 
11 | COc1ccc(NC(=S)NC(=O)CC(C)C)c(OC)c1 | inconclusive [inhibitor, single point] | 
12 | CS(=O)(=O)N1CCN(c2ccccc2NC(=S)NC(=O)c2ccccc2[N+](=O)[O-])CC1 | inconclusive [inhibitor, single point] | 
13 | COCC(C)n1c(SCC(=O)N2CCc3ccccc3C2)nc2ccccc2c1=O (stereo not drawn) | inconclusive [inhibitor, partial curve] | 
14 | COc1cc(/C=C/C(=O)c2cccc([N+](=O)[O-])c2)cc(OC)c1OC | active: 11.2 µM | 
15 | c1ccc(-c2cc3ccccc3nc2N2CCCC2)cc1 | inconclusive [inhibitor, partial curve] | 
16 | CN(c1ccccc1)S(=O)(=O)c1cccc(NC(=O)c2cc(=O)c3ccccc3o2)c1 | active: 11.2 µM | 
17 | CC(=O)c1ccc(N2CCN(C(=O)C3CCN(S(=O)(=O)c4ccc5c(c4)CC(C)N5C(C)=O)CC3)CC2)cc1 (stereo not drawn) | inconclusive [inhibitor, single point] | 
18 | CN(C)CC(C(=O)c1ccccc1)c1ccccc1 (stereo not drawn) | inconclusive [inhibitor, partial curve] | 
19 | COc1cccc(O)c1CN1CCCC(C(=O)c2cccc(C(F)(F)F)c2)C1 (stereo not drawn) | inconclusive [inhibitor, full curve, poor fit] | 
20 | O=S(=O)(Nc1ccccc1OC(F)F)c1ccc(S(=O)(=O)N2CCCC2)cc1 | inconclusive [inhibitor, single point] | 
21 | COc1ccc(C2C3=C(CC(C)(C)CC3=O)Oc3ncn4nc(-c5cccnc5)nc4c32)cc1 (stereo not drawn) |  | inactive: -7.09%
22 | CC(C)(C)Nc1nc(N)nc(Cl)n1 |  | inactive: 5.53%
23 | Nc1nc(NCC2CCCO2)nc(Nc2ccccc2F)c1[N+](=O)[O-] (stereo not drawn) | inconclusive [inhibitor, single point] | 

Row | SMILES | Potency | activity change, negative = inhibition
24 | C(=N\n1cnnc1)/c1cn(Cc2ccccc2)c2ccccc12 | inconclusive [inhibitor, partial curve] | 
25 | Cn1nnnc1Sc1ncnc2scc(-c3ccc(F)cc3)c12 | inconclusive [inhibitor, single point] | 
26 | O=C(CSC1=NC2(CCCCC2)N=C1c1ccccc1)Nc1ccc2c(c1)OCCO2 | active: 11.2 µM | 
27 | Clc1cccc(Cl)c1COc1ccncc1 |  | inactive: -3.53%
28 | O=C(NCC1CCCO1)c1ccc(N2CCCCC2)c([N+](=O)[O-])c1 (stereo not drawn) |  | inactive: 1.03%
29 | O=C(c1ccco1)N1CCN(C(=O)c2ccc(-c3ccc(Cl)cc3)o2)CC1 | inconclusive [inhibitor, single point] | 
30 | CCOc1ncccc1C(=O)OCC(=O)c1cc(OC)ccc1OC | inconclusive [inhibitor, full curve, poor fit] | 
31 | Nc1ccc(C(=O)N2CCN(S(=O)(=O)c3ccc4c(c3)OCCCO4)CC2)cc1[N+](=O)[O-] | inconclusive [inhibitor, single point] | 
32 | Nc1nc(-c2ccccc2)c(N=Nc2cccc3ccccc23)s1 | inconclusive [inhibitor, partial curve, poor fit] | 
33 | O=c1c2ccccc2nc(COc2ccccc2)n1/N=C/c1ccc(O)c(O)c1 | inconclusive [inhibitor, single point] | 
34 | COc1cccc(C(=O)O/N=C(\N)c2ccc(C)cc2)c1 |  | inactive: -4.64%
35 | CCCn1c(N2CCN(Cc3cccc(C)c3)CC2)nc2c1c(=O)[nH]c(=O)n2C |  | inactive: -20%
36 | O=C(Nc1ccc(F)cc1)Nc1nnc(-c2ccco2)s1 |  | inactive: -12.6%
37 | CCc1ccc(O)c(CNCCNCc2cc(CC)ccc2O)c1 | inconclusive [inhibitor, single point] | 
38 | Cc1ccc(CNC(=O)c2cc3c(=O)n4ccccc4nc3n(Cc3ccco3)c2=N)cc1 | inconclusive [inhibitor, full curve] | 
39 | COc1ccc(-c2nnc(SCc3nc4ccccc4s3)n2C(C)C)cc1 | inconclusive [inhibitor, partial curve, poor fit] | 
40 | CCOC(=O)c1cnn2c(C(F)(F)F)cc(-c3ccccc3)nc12 | inconclusive [inhibitor, partial curve] | 
41 | COC(=O)C1=C(c2cc3ccccc3o2)C[C@@H]2CC[C@H]1N2C(=O)N1CCCC1 | inconclusive [inhibitor, single point] | 
42 | Cc1ccccc1-c1nsc(SCC(=O)Nc2ccc3c(c2)OCO3)n1 | inconclusive [inhibitor, single point] | 
43 | Cc1ccc(S(=O)(=O)NCCS(=O)(=O)N2CCN(c3ccccc3)CC2)cc1 | inconclusive [inhibitor, single point] | 
44 | Cc1ccc(S(=O)(=O)N2CCN(C(=O)c3cc4c(C)nn(-c5ccccc5C)c4s3)CC2)cc1 | inconclusive [inhibitor, partial curve, poor fit] | 
45 | Cc1ccc2c(CN3CCN(S(=O)(=O)c4ccccc4C(F)(F)F)CC3)cc(=O)oc2c1 | inconclusive [inhibitor, single point] | 
46 | COC(=O)Nc1ccc(C)cc1NC(=O)OC |  | inactive: 2.59%

Row | SMILES | Potency | activity change, negative = inhibition
47 | CCOc1ccc(/C=N/NC(=O)c2ccccc2Cl)cc1CN1CC2CC(C1)c1cccc(=O)n1C2 (stereo not drawn) | active: 2.51 µM | 
48 | COc1ccc2[nH]c3c(c2c1)CCN1C(=O)N([C@@H](C)C(=O)NCc2ccccc2)C(=O)[C@]31C |  | inactive: -23.6%
49 | c1ccc(CNc2c3ccccc3nc3ccccc23)cc1 | inconclusive [inhibitor, single point] | 
50 | COc1ccc(N(C(=O)C2CCCCC2)S(=O)(=O)c2cccc3cccnc23)cc1 | inconclusive [inhibitor, single point] | 
51 | COc1ccc(NC(=O)c2ccc3c(c2)N(C)CCS3)cc1 | inconclusive [inhibitor, partial curve, poor fit] | 
52 | Cc1cc(C)c(S(=O)(=O)N2CCN(C(=O)c3ccc4c(c3)OCO4)CC2)c(C)c1 | inconclusive [inhibitor, partial curve] | 
53 | Nc1c(C(=O)Nc2ccc3c(c2)OCCO3)nnn1Cc1cccc(F)c1 |  | inconclusive: -36.3% [inhibitor]
54 | Cc1ccc2c(c1)C1CN(C)CCC1N2C(=O)COc1ccc(N(C)C(=O)C(C)(C)C)cc1 (stereo not drawn) | inconclusive [inhibitor, partial curve] | 
55 | O=C(NCC1COc2ccccc2O1)c1ccc(Cl)c(S(=O)(=O)N2CCCC2)c1 (stereo not drawn) | inconclusive [inhibitor, single point] | 
56 | O=c1cc(C(F)(F)F)nc(-c2ccccc2OC(F)(F)F)[nH]1 |  | inactive: 19.5%
57 | COc1ccc(-n2nc(C(=O)NCC(=O)N3CCOCC3)c3ccccc3c2=O)cc1Cl | inconclusive [inhibitor, single point] | 
58 | COc1ccc(OCC(O)CN(CC(O)COc2ccc(OC)cc2)c2cccc(O)c2)cc1 (stereo not drawn) | inconclusive [inhibitor, single point] | 
59 | O=C(NCc1ccccc1)c1cccc(NC(=O)C2CC2)c1 | inconclusive [inhibitor, partial curve, poor fit] | 
60 | O=C(COc1ccc(Cl)cc1Cl)NNC(=S)Nc1ccc(F)cc1 |  | inactive: -0.0131%
61 | CSc1c(C#N)c(N)nc2sc(C(=O)c3ccc(Cl)c(Cl)c3)c(N)c12 | inconclusive [inhibitor, full curve] | 
62 | Cc1ccc(NC(=O)c2cc(C)nc3ccccc23)c(C)c1 |  | inactive: -4.68%
63 | COc1ccc(-c2cc3nc(C)cc(C)n3n2)cc1 |  | inactive: -3.08%
64 | CC1(C)CC2(CC(c3ccccc3F)c3cc(Cl)c(O)cc3O2)NC(=S)N1 (stereo not drawn) | inconclusive [inhibitor, partial curve] | 
65 | CCN(CC)CCCn1c2c(c(SCC(=O)Nc3ccc4c(c3)OCO4)nc1=O)CCC2 | inconclusive [inhibitor, single point] | 
66 | COC(=O)c1[nH]nc(C(=O)OC(C)(C)C)c1-c1ccccc1 |  | inactive: -1.82%
67 | Cc1nc(-c2ccccc2)cc(N2CCCC2)n1 | active: 8.91 µM | 
68 | CN(C)c1ccc(/C=N/NC(=O)CCc2c[nH]c3ccccc23)cc1 |  | inactive: -11.2%
